Sequences with one replicate were seen in a single cluster, so their values are uncertain.
System: ATP
Experiment: switch fluorescence ratio, 500 uM ATP over buffer (Cy3 cluster intensity, sum of 5 cycles each) (fold (ratio)); higher = stronger signal-on switching upon ATP binding; sequences stand for … in TCGTCGGCAGCGTCAGATGTGTATAAGAGACAGTTTTTTTTTTTTTTTTTTTTTTTTT…TC
Details: aptamer strand: ATP DNA aptamer (quencher-CACCTGGGGGAGTATTGCGGAGGAAGG + anchor), 100 nM annealed; ATP concentration: 500 uM; one replicate
Summary of the method: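 Five buffer/ATP imaging cycles were run on Cy3-labelled switching-strand clusters on a modified Illumina MiSeq flow-cell, with NaOH stripping and re-annealing between cycles. In each cycle, clusters annealed to 100 nM quencher-labelled ATP aptamer were imaged in selection buffer, then after 15 min with 500 uM ATP at 22 °C. Per cluster, the fluorescence ratio is summed target-cycle over summed buffer-cycle Cy3 intensity, averaged per switch-domain sequence. Only clusters within 100-1000 RFU were kept.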
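Further: ATP exposure 15 min at 22 °C before imaging.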

Row | Sequence | switch fluorescence ratio
1 | TTCCTATATT | 0.994
2 | TTTTATTGAT | 1.02
3 | TAATAACAGC | 0.983
4 | AGGACTGCGT | 0.973
5 | CTCGGGGGG | 1.04
6 | CGTTCCGTTT | 0.995
7 | AAGTCCTTAG | 0.974
8 | GTTCGGTGGG | 0.988
9 | GGTCTGTACG | 0.993
10 | ACCCCGGACT | 1.04
11 | ACGCTACGCG | 1.04
12 | GAAGCCTCGG | 1.01
13 | CGAATGAGTT | 0.944
14 | TCGGTCCCG | 1.01
15 | TACATCTGAT | 0.977
16 | AGTACGCGGA | 0.97
17 | TGGCCGTCTA | 0.986
18 | TTACATCTTA | 1.01
19 | GAGCTGGTTT | 1.03
20 | AGCTACGACA | 1.33
21 | TGGAGTTATC | 0.999
22 | TTACTGTCGA | 0.989
23 | CTCGACTCTG | 0.996
24 | TGAGATACAG | 0.999
25 | CATTTGTGA | 1
26 | TTCTACCGGA | 0.996

Row | Sequence | switch fluorescence ratio
27 | CTTTACGCTG | 1.05
28 | GGTCAAAAGC | 0.995
29 | CCGCGTGCGG | 1.01
30 | TTGCTGCTTG | 0.988
31 | GCATTTGTCC | 1.03
32 | GCATATTATC | 1.1
33 | ACATTTTGCC | 1.05
34 | GGAGACTGAG | 1.03
35 | AGAGAGGCGC | 0.974
36 | TACCAGTGGA | 0.982
37 | GGGTCCGGGG | 1.01
38 | GCGCCACAGT | 1.07
39 | CAACTTTATC | 0.989
40 | TTTAACATGA | 1.03
41 | CGTGTCCCGG | 0.971
42 | GGCGTCGTTC | 0.976
43 | TCATTTTGCT | 1
44 | GTCCCTGGGT | 1.02
45 | ATTCTTATTC | 0.994
46 | TTCTCGGTCA | 1.02
47 | GTTGGAGATG | 1
48 | CTTGGCATGG | 1.07
49 | CCATTCAGTT | 1.04
50 | TGCTTTTACA | 1.04
51 | TTGAAGGGCT | 1
52 | GCGTTCGCCC | 0.942

Row | Sequence | switch fluorescence ratio
53 | TGCATTCTTG | 0.999
54 | GGTGACCTGT | 0.964
55 | GCTACTCGTA | 1.03
56 | CAAAAATAGA | 1.03
57 | AGAAGAGGCA | 0.974
58 | CTAGACTTCG | 1.05
59 | TTGTTGCTAA | 1.13
60 | GATAGTTACC | 1.04
61 | AGCGGGACCC | 1.04
62 | CTCGCAGGTT | 1.19
63 | TCTGCGCGA | 1.82
64 | CGCCGTGATC | 1.16
65 | TTAGGTATGT | 1.01
66 | AGAGGAGCAC | 1.18
67 | ACATCAAAGT | 1.01
68 | CGTTAATATA | 0.964
69 | AGTGAACCTC | 1.01
70 | TGGGTGAAAC | 1.01
71 | TGTGACGGGT | 1.02
72 | GGATTTGCGC | 0.95
73 | CGGACACGTA | 1.01
74 | CCTGGTGCAC | 1.1
75 | CCGTATTTAT | 0.959
76 | CTCAGTGCAC | 0.976
77 | GAATATTAAT | 1.01
78 | CCTATGCCTA | 1.2

Row | Sequence | switch fluorescence ratio
79 | AAGCATATTG | 1
80 | GATGCATCGT | 1.02
81 | TCATTGATAC | 1.09
82 | CAACTTCGGC | 1
83 | AGTGGGGAAC | 1.01
84 | TGTTTGATAC | 1.1
85 | GTTAGCCTTT | 1.02
86 | CCGTCTATCT | 1.14
87 | GAGTGATTGT | 0.966
88 | GCGGGGCGAC | 0.987
89 | GCGCGATTTA | 0.993
90 | AGAGGATTGG | 0.98
91 | CTGCATTGGC | 1.3
92 | AGGGTATACG | 0.998
93 | CTGAATCTG | 1.03
94 | CCAGAGCGTG | 1.01
95 | AGGAGAGACG | 1.03
96 | AGTGATTCG | 0.991
97 | GCCAGTACTT | 1
98 | GCAGTTACGG | 1.07
99 | AAGTTAGGTG | 1.08
100 | CGTCTGACTA | 1.07
101 | GACGTCACAG | 1.12

— the supplement of paper PMC10126150
